# Measurements as given in article PMC12820563, “FoxP3 forms a head-to-head dimer in vivo and stabilizes its multimerization on adjacent microsatellites”.
# The other results are listed elsewhere or left out.
# Target: T1, MBP-FoxP1dN (Mus musculus, UniProt P58462 326-579)
# T1 sequence: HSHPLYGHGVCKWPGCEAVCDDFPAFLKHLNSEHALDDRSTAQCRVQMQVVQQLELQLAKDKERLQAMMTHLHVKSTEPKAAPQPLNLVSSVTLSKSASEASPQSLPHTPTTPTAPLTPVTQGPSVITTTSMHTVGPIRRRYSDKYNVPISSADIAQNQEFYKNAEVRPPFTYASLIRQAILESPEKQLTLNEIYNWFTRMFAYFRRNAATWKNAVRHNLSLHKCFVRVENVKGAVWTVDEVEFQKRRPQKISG
# Assay: PD-seq (MBP pull-down with sequencing); 20 mM Tris-HCl pH 7.5, 100 mM NaCl, 1.5 mM MgCl2, 0.4 uM protein, 0.1 uM dsDNA library, 30 min, room temperature, amylose pull-down; high values mean tight binding
# Conditions: protein: recombinant; tags: His6-MBP; chain copies: 2; dsDNA, one strand shown
# Method in brief: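 In Tris pH 7.5 buffer with NaCl and MgCl2, 0.4 µM His6-MBP-tagged mouse FoxP3 or FoxP1 fragment lacking the N-terminus, from E. coli, met 0.1 µM Klenow-filled double-stranded degenerate DNA library for 30 min at room temperature. Three washes on amylose resin followed capture of the complexes, then proteinase K release of DNA, PCR barcoding and Illumina sequencing. Binding is taken as pooled-replicate reads-per-million enrichment of pull-down relative to input.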
row,Sequence,binding signal
1,GATGATTGTTCTCCCAGCTGATGAATTACCTAGGTCGAGTAAACAAATTTTCCTAATCTTTCTGTTCAAGCGCCATCTAC,0.892 RPM ratio (pull-down/input)
2,GATGATTGTTCTCCCAGCTGATGAATTTCTAGCCTCGAGTAAACAAATTTTCCTAATCTTTCTGTTCAAGCGCCATCTAC,0.814 RPM ratio (pull-down/input)
3,GATGATTGTTCTCCCAGCTGATGAATTACTGCGATCGAGTAAACAAATTTTCCTAATCTTTCTGTTCAAGCGCCATCTAC,1.06 RPM ratio (pull-down/input)
4,GATGATTGTTCTCCCAGCTGATGAATTTCTCGCATCGAGTAAACAAATTTTCCTAATCTTTCTGTTCAAGCGCCATCTAC,1.12 RPM ratio (pull-down/input)
5,GATGATTGTTCTCCCAGCTGATGAATTACACCGATCGAGTAAACAAATTTTCCTAATCTTTCTGTTCAAGCGCCATCTAC,1.08 RPM ratio (pull-down/input)
6,GATGATTGTTCTCCCAGCTGATGAATTTAAAGCGTCGAGTAAACAAATTTTCCTAATCTTTCTGTTCAAGCGCCATCTAC,0.962 RPM ratio (pull-down/input)
7,GATGATTGTTCTCCCAGCTGATGAATTCTACACTTCGAGTAAACAAATTTTCCTAATCTTTCTGTTCAAGCGCCATCTAC,0.924 RPM ratio (pull-down/input)
8,GATGATTGTTCTCCCAGCTGATGAATTTCCAGAATCGAGTAAACAAATTTTCCTAATCTTTCTGTTCAAGCGCCATCTAC,0.894 RPM ratio (pull-down/input)
9,GATGATTGTTCTCCCAGCTGATGAATTTCTTGACTCGAGTAAACAAATTTTCCTAATCTTTCTGTTCAAGCGCCATCTAC,0.868 RPM ratio (pull-down/input)
10,GATGATTGTTCTCCCAGCTGATGAATTCTACTAATCGAGTAAACAAATTTTCCTAATCTTTCTGTTCAAGCGCCATCTAC,0.957 RPM ratio (pull-down/input)
11,GATGATTGTTCTCCCAGCTGATGAATTGTTAGGCTCGAGTAAACAAATTTTCCTAATCTTTCTGTTCAAGCGCCATCTAC,0.965 RPM ratio (pull-down/input)
12,GATGATTGTTCTCCCAGCTGATGAATTACGAACCTCGAGTAAACAAATTTTCCTAATCTTTCTGTTCAAGCGCCATCTAC,0.885 RPM ratio (pull-down/input)
13,GATGATTGTTCTCCCAGCTGATGAATTCACGCGTTCGAGTAAACAAATTTTCCTAATCTTTCTGTTCAAGCGCCATCTAC,1.02 RPM ratio (pull-down/input)
14,GATGATTGTTCTCCCAGCTGATGAATTCATTAGATCGAGTAAACAAATTTTCCTAATCTTTCTGTTCAAGCGCCATCTAC,0.904 RPM ratio (pull-down/input)
15,GATGATTGTTCTCCCAGCTGATGAATTAGGGAATTCGAGTAAACAAATTTTCCTAATCTTTCTGTTCAAGCGCCATCTAC,0.939 RPM ratio (pull-down/input)
16,GATGATTGTTCTCCCAGCTGATGAATTGGATCGGTCGAGTAAACAAATTTTCCTAATCTTTCTGTTCAAGCGCCATCTAC,0.781 RPM ratio (pull-down/input)

row,Sequence,binding signal
1,GATGATTGTTCTCCCAGCTGATGAATTCGCTTCTTCGAGTAAACAAATTTTCCTAATCTTTCTGTTCAAGCGCCATCTAC,0.934 RPM ratio (pull-down/input)
2,GATGATTGTTCTCCCAGCTGATGAATTTGAACCGTCGAGTAAACAAATTTTCCTAATCTTTCTGTTCAAGCGCCATCTAC,0.813 RPM ratio (pull-down/input)
3,GATGATTGTTCTCCCAGCTGATGAATTATCTTGGTCGAGTAAACAAATTTTCCTAATCTTTCTGTTCAAGCGCCATCTAC,0.937 RPM ratio (pull-down/input)
4,GATGATTGTTCTCCCAGCTGATGAATTCCATATCTCGAGTAAACAAATTTTCCTAATCTTTCTGTTCAAGCGCCATCTAC,0.894 RPM ratio (pull-down/input)
5,GATGATTGTTCTCCCAGCTGATGAATTTATTCGTTCGAGTAAACAAATTTTCCTAATCTTTCTGTTCAAGCGCCATCTAC,1.13 RPM ratio (pull-down/input)
6,GATGATTGTTCTCCCAGCTGATGAATTCAGTCTTTCGAGTAAACAAATTTTCCTAATCTTTCTGTTCAAGCGCCATCTAC,0.95 RPM ratio (pull-down/input)
7,GATGATTGTTCTCCCAGCTGATGAATTCGTTAAATCGAGTAAACAAATTTTCCTAATCTTTCTGTTCAAGCGCCATCTAC,0.968 RPM ratio (pull-down/input)
8,GATGATTGTTCTCCCAGCTGATGAATTGAGCTGCTCGAGTAAACAAATTTTCCTAATCTTTCTGTTCAAGCGCCATCTAC,0.787 RPM ratio (pull-down/input)
9,GATGATTGTTCTCCCAGCTGATGAATTTTCAAGCTCGAGTAAACAAATTTTCCTAATCTTTCTGTTCAAGCGCCATCTAC,0.826 RPM ratio (pull-down/input)
10,GATGATTGTTCTCCCAGCTGATGAATTCATGCCGTCGAGTAAACAAATTTTCCTAATCTTTCTGTTCAAGCGCCATCTAC,0.877 RPM ratio (pull-down/input)
11,GATGATTGTTCTCCCAGCTGATGAATTCCTGCCCTCGAGTAAACAAATTTTCCTAATCTTTCTGTTCAAGCGCCATCTAC,0.786 RPM ratio (pull-down/input)
12,GATGATTGTTCTCCCAGCTGATGAATTGGCTGTATCGAGTAAACAAATTTTCCTAATCTTTCTGTTCAAGCGCCATCTAC,1.06 RPM ratio (pull-down/input)
13,GATGATTGTTCTCCCAGCTGATGAATTGTGTATTTCGAGTAAACAAATTTTCCTAATCTTTCTGTTCAAGCGCCATCTAC,1.75 RPM ratio (pull-down/input)
14,GATGATTGTTCTCCCAGCTGATGAATTCGGGGCGTCGAGTAAACAAATTTTCCTAATCTTTCTGTTCAAGCGCCATCTAC,0.767 RPM ratio (pull-down/input)
15,GATGATTGTTCTCCCAGCTGATGAATTCATGGACTCGAGTAAACAAATTTTCCTAATCTTTCTGTTCAAGCGCCATCTAC,0.886 RPM ratio (pull-down/input)
16,GATGATTGTTCTCCCAGCTGATGAATTAGTGTGGTCGAGTAAACAAATTTTCCTAATCTTTCTGTTCAAGCGCCATCTAC,1.01 RPM ratio (pull-down/input)
